According to article PMC4336329 (PLoS ONE, 2015):
The campaign covered roughly 310,000 compounds. About 2,200 (0.71%) showed an effect of 50% or more. Effects have a minus sign here. The list shows a part of the results. Where a SMILES comes first, the peptide text is derived from it. [ ]: non-standard residue; d: D form. pGlu = O=C1CC[CH](C(=O)O)N1

The compounds below were run against human ether-à-go-go-related gene (hERG) potassium channel (human, UniProt Q12809) (assay: primary screen, population patch clamp on CHO cells stably expressing hERG).
Chain of human ether-à-go-go-related gene (hERG) potassium channel (Q12809 whole entry, looked up): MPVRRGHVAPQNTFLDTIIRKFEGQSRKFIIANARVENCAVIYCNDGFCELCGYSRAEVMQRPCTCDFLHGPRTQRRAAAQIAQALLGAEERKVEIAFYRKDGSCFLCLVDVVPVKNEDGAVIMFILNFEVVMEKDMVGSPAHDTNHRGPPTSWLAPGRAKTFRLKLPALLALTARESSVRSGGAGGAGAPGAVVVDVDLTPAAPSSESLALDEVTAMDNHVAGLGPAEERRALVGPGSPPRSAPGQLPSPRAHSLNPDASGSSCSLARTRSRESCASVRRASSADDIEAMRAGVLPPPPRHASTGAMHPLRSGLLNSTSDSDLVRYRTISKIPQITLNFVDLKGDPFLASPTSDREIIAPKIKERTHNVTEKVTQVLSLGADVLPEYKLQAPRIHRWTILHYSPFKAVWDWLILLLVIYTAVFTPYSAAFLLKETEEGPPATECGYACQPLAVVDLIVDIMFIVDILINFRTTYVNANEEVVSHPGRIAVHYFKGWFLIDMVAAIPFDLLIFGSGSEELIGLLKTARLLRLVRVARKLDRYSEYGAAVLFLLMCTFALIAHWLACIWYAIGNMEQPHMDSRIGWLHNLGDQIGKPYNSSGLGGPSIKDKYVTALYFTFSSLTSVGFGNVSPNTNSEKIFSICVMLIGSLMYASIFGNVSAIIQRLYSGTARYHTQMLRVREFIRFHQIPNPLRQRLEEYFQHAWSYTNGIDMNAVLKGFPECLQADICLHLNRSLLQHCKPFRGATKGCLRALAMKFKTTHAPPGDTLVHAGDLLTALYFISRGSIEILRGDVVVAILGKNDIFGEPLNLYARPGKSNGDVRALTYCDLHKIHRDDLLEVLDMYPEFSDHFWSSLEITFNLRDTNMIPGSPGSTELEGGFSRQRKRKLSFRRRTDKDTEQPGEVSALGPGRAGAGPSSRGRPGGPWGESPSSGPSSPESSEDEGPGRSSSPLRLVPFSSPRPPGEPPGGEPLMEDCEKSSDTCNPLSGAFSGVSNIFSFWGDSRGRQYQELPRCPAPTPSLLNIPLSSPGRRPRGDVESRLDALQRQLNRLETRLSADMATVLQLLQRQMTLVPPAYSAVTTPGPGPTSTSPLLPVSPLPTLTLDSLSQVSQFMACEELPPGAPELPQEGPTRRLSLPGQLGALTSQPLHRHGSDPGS

| SMILES | hERG current change (%, negative = inhibition) at 1uM [%] |
| --- | --- |
| Cc1cccc(C)c1NC(=O)c1sccc1SCC#N | -4.91 |
| Cc1csc(-c2cccnc2)n1 | 11.2 |
| Cc1cc(C(=O)N/N=C/c2ccc([N+](=O)[O-])o2)c(C)o1 | 12.4 |
| Cc1ccc(S(=O)(=O)NCc2ccccc2)cc1C(=O)NCC1CCCO1 (stereo not shown) | 12.8 |
| CCCCCN(C(=O)CCC(=O)OCC(=O)NC1CCC(C)CC1)c1c(N)n(CCCC)c(=O)[nH]c1=O (stereo not shown) | 16.2 |
| CNC(=O)C(C#N)(Cc1cc(C(C)=O)ccc1OC)Cc1cc(C(C)=O)ccc1OC | 14 |
| C(=N\Nc1ncnc2sc3c(c12)CCC3)/c1cccs1 | 6.66 |
| COc1ccc(C(C#N)N2CCOCC2)cc1 (stereo not shown) | 5.38 |
| COCCNC(=O)/C(C#N)=C/c1nc(N(C)C)n(-c2ccc(F)cc2)c1Cl | 10.3 |
| Cc1ccc(N(C)S(=O)(=O)c2cc3c(cc2C)NC(=O)CO3)cc1 | 2.17 |
| Cc1ccn2c(-c3n[nH]c(=S)n3C)c(C)nc2c1 | 10.3 |
| Clc1ccccc1C1=NCc2nncn2-c2sc(Br)cc21 | 12.5 |
| O=C(Nc1cccc(O)c1)C1CC(c2c(F)cccc2Cl)=NO1 (stereo not shown) | -17.6 |
| Cc1cc(Br)cc2c(C(=O)NCC3CCCO3)cc(-c3cccs3)nc12 (stereo not shown) | 15.3 |
| CC(C)c1ccc2oc(=O)cc(CN3CCN(c4ccccc4)CC3)c2c1 | -1.41 |
| Cc1ccc(Cl)cc1NC(=O)CCC(=O)O | 13 |
| Cc1cc(C(=O)N/N=C/c2ccc(-c3cccc(Br)c3)o2)n[nH]1 | 16.2 |
| S=c1[nH]nc(COc2ccccc2)n1/N=C/C=C/c1ccccc1 | 4.59 |
| CNC(=O)c1[nH]nc2c1CCc1cc(OC)ccc1-2 | 11.1 |
| CCCCOc1ccc(C(=O)NCC(=O)NCCOc2ccccc2)cc1 | 0.973 |

| SMILES | hERG current change (%, negative = inhibition) at 1uM [%] |
| --- | --- |
| O=C(CC(=O)NC1CCCCC1)N/N=C/c1ccccc1Cl | 15.4 |
| Cc1cccc(Nc2nc(N)c(C#N)c(CC#N)c2C#N)c1 | 8.1 |
| CCn1c(SCC(=O)c2ccc(Cl)s2)nnc1-c1cccs1 | 3.68 |
| CC1(C)CC2CC(C)(CN2c2ncnc3ccc(Br)cc23)C1 (stereo not shown) | 8.62 |
| CCOc1cc(/C=N/NC(N)=O)cc(Br)c1OCC(=O)Nc1ccccc1C | 8.57 |
| Cc1cnc([N+](=O)[O-])n1CCOC(=O)NC(=O)c1ccc(F)cc1 | 1.2 |
| COCCn1nnnc1CN1CCC(C)CC1 | 3.23 |
| CC(=O)n1cc(/C=N/NC(=O)c2ccccc2Cl)c2ccccc21 | 12.9 |
| O=S(=O)(c1ccc(Cl)cc1)N1CCN(Cc2cccnc2)CC1 | -2.19 |
| CCNC(=O)C(CC(C)C)NC(=O)C(CO)NC(=O)C1CCC(=O)N1 (stereo not drawn) ([pGlu]-Ser-Leu-NHEt; configuration not given here) | 13.7 |
| CN1C(=O)NC(=O)[C@]2(Cc3ccccc3N3CCN(c4ccccc4)CC32)C1=O (stereo partly shown) | 8.88 |
| CCN(CC)C(=O)C1CCCN(C/C=C/c2ccccc2)C1 (stereo not shown) | -12 |
| O=C(O)CCc1ccc(-c2ccccc2)n1CC(=O)Nc1cccc(C(F)(F)F)c1 | 18.4 |
| O=C(O)C1CCN(C(=O)c2cc(F)cc3c2OCOC3)CC1 | 10.1 |
| O=C(N1CCN(CCO)CC1)N1c2ccccc2CCc2ccccc21 | 9.15 |
| Cc1cccc(OCC(=O)NCC(=O)N/N=C/c2cc(Br)cc(Br)c2O)c1 | 28 |
| Cc1ccc(CNC(=O)C2CCC(=O)N(Cc3ccc(Cl)cc3)C2)cc1F (stereo not shown) | -22.9 |
| CCCSc1cc(=O)n(-c2ccccc2)nc1C(=O)O | 9.06 |
| O=C(N/N=C/c1ccc(Br)s1)Nc1ccccc1 | 8.11 |
| O=C(CC1=NCCNC(c2ccccc2)C1)c1ccccc1O (stereo not shown) | 6.64 |

| SMILES | hERG current change (%, negative = inhibition) at 1uM [%] |
| --- | --- |
| CCOC(=O)C(C)Sc1nnc(-c2ccccc2O)n1Cc1ccccc1 (stereo not shown) | -3.58 |
| O=C(NCCc1ccccc1)c1ccc2nccnc2c1 | 20.4 |
| CC1(C)O[C@@H]2[C@H](O1)[C@@H](CO)O[C@H]2n1cnc2c(=O)[nH]cnc21 | 12.4 |
| CCOc1ccc(/C=C/C(=O)Nc2ccc(C(N)=O)cc2)cc1OC | -3.73 |
| CC(C)(C)c1ccc(-n2nc(C(N)=O)c(O)cc2=O)cc1 | 14.1 |
| Cc1sc2ncn(CC(=O)N3CCN(c4ccccn4)CC3)c(=O)c2c1S(=O)(=O)N1CCCCC1 | 7.98 |
| CC(Sc1nc2ncc(Cl)cc2[nH]1)C(=O)NC1(C#N)CCCCC1 (stereo not shown) | 8.62 |
| Cc1cc(=O)[nH]c(N/N=C/C(C)c2ccccc2)n1 (stereo not shown) | 5.22 |
| COc1cccc(C2C(C(C)=O)=C(O)C(=O)N2CCc2c[nH]c3ccccc23)c1 (stereo not shown) | 9.9 |
| Cc1cc(Cl)ccc1OCCCC(=O)NCCN1C(=O)S/C(=C\c2cccnc2)C1=O | 5.92 |
| COc1ccc(C(=O)NCC(=O)OCC(=O)N2CCC(C)CC2)cc1OC | 9.02 |
| Cc1ccc(S(=O)(=O)N2CCCN(C(=O)c3ccc(-n4cccn4)cc3)CC2)cc1 | -22 |
| CN1CCC(=O)N([C@H](CN=[N+]=[N-])c2ccccc2)CC1 | 11.6 |
| C=CCOC(=O)C(C#N)c1nc2ccccc2nc1N1CCC(C(=O)OCC)CC1 (stereo not shown) | 8.55 |
| Cc1ccc(NC(=S)C2=C(O)c3sccc3N(C)S2(=O)=O)cc1 | 11.4 |
| CCOC(=O)C1CCN(C(=O)COc2ccc(Br)cc2)CC1 | -19.5 |
| COc1ccccc1C(=O)N(C)CC(=O)Nc1ccc(N2CCOCC2)cc1 | 6.54 |
| COc1ccccc1Nc1ccc(C(=O)NC2CCCCC2)cn1 | 1.13 |
